{"source": "PubChem BioAssay AID881", "about": "(National Center for Advancing Translational Sciences (NCATS), 2007)", "note": "The campaign covered roughly 110,000 compounds. About 610 (0.55%) were called active. Inconclusive means that the source gave no clear call. Such entries were picked first, then a sample of the others. The call rests on the fitted dose curve; in most records, active means well fitted inhibition curve with a large enough effect; inconclusive means small, poorly fitted or top-dose-only effect; inactive means no such curve, though single readings can be large or run the other way. Potencies beside an inconclusive call are fits to weak or partial responses and may not hold up. On the % scale 0 is the no-effect control and ±100 the full control effect; potency means the concentration at half of the fitted maximal effect; tags describe the fitted curve by direction and shape."}
{"target": "Polyunsaturated fatty acid lipoxygenase ALOX15B (Homo sapiens) (UniProt O15296)", "sequence (O15296 whole entry, looked up)": "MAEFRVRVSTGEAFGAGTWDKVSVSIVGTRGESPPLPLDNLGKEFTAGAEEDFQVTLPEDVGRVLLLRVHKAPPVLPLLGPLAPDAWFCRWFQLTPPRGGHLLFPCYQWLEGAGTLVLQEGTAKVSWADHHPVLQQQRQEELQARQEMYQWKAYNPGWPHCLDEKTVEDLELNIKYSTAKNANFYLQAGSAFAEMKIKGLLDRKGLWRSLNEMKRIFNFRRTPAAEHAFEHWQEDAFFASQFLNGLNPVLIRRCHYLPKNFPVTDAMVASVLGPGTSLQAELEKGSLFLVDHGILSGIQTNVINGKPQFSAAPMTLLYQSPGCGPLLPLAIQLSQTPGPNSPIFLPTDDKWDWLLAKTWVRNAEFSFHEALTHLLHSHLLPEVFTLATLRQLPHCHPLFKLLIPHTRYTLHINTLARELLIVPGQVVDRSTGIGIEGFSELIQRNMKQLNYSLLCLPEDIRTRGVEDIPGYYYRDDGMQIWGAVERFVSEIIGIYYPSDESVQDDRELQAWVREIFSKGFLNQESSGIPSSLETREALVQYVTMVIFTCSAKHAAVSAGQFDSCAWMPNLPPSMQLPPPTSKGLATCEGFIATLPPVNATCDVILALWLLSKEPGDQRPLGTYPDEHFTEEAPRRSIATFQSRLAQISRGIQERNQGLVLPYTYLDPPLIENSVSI", "assay": "qHTS Assay for Inhibitors of 15-hLO-2 (15-human lipoxygenase 2); further: nearly all actives have a fitted effect of over 60% in size", "conditions": "purified 15hLO-2, xylenol orange hydroperoxide absorbance; activity change, negative = inhibition: at 57.1 µM (top of the series) unless noted", "in_short": "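Purified human 15hLO-2 (50 nM) preincubated 15 min with compound, then 45 uM arachidonic acid for 90 min at RT in 25 mM Hepes pH 7.5, 0.01% Triton X-100. Hydroperoxide detected by Fe-xylenol orange; 573/405 nm absorbance ratio.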"}
{"compound": "CC1=CC(C)(C)Nc2ccc(CSc3ccccc3)cc21", "Potency": "inconclusive: 2.51 µM [inhibitor, partial curve]"}
{"compound": "O=C(c1ccco1)N1CCC2(CC1)CCN(c1ccccn1)CC2", "Potency": "inactive"}
{"compound": "CCCn1c(SCC(N)=O)nnc1-c1ccco1", "Potency": "inactive"}
{"compound": "NCCc1nnc(SCc2c(F)cccc2Cl)o1", "Potency": "inactive"}
{"compound": "COc1ccc(-n2c(NC(=O)c3ccc(Br)o3)c(C#N)c3nc4ccccc4nc32)cc1", "Potency": "inconclusive: 7.94 µM [inhibitor, partial curve]"}
{"compound": "Cc1ccc(C(=O)N2CCN(c3ccc(NC(=S)NC(=O)Cc4ccccc4)cc3)CC2)cc1", "Potency": "active: 12.6 µM"}
{"compound": "CCCCNC(=O)c1onc(CSc2ccc(OC)cc2)c1C(=O)O", "Potency": "inconclusive: 31.6 µM [inhibitor, single point]"}
{"compound": "COc1ccccc1CNc1ccnc(-c2cccnc2)n1", "Potency": "inconclusive: 25.1 µM [inhibitor, single point]"}
{"compound": "CCC(c1nnc(SCC(=O)NCCc2ccc(Cl)cc2Cl)o1)N(C)C", "note": "(stereo not given)", "Potency": "inconclusive: 15.8 µM [inhibitor, partial curve]"}
{"compound": "COc1cc(N=c2ssnc2Cl)cc(OC)c1", "Potency": "inconclusive: 25.1 µM [inhibitor, single point]"}
{"compound": "COc1ccccc1/C=C1\\NC(=S)N(CC2CCCO2)C1=O", "note": "(stereo not given)", "Potency": "inconclusive: 15.8 µM [inhibitor, partial curve]"}
{"compound": "Nc1cc(N)nc(SCC(=O)c2ccccc2)n1", "Potency": "inconclusive: 0.316 µM [inhibitor, full curve, poor fit]"}
{"compound": "C[N+]1(C)CCC(=C2c3ccccc3CC(=O)c3sccc32)CC1", "Potency": "inconclusive: 39.8 µM [inhibitor, single point]"}
{"compound": "CSc1nc2sc3c(c2c(=O)n1C)CCC(C)C3", "note": "(stereo not given)", "Potency": "inactive"}
{"compound": "COc1ccc(N=C2S/C(=C\\c3ccc(C)o3)C(=O)N2CC(C)C)cc1", "Potency": "inconclusive: 15.8 µM [inhibitor, partial curve]"}
{"compound": "Cc1cccc(-c2cccc(-c3cc(=O)oc4cc5c(cc34)OCO5)c2)c1", "activity change, negative = inhibition": "inactive: -19.8% [at 0.0915 µM]"}
{"compound": "Cc1ccc(S(=O)(=O)N2CCCC2C(=O)OCc2ccco2)cc1", "note": "(stereo not given)", "Potency": "inconclusive: 25.1 µM [inhibitor, single point]"}
{"compound": "O=C(O[C@@H]1Cc2c(O)cc(O)cc2OC1c1ccc(O)c(O)c1)c1cc(O)c(O)c(O)c1", "note": "(stereo not given in full)", "Potency": "inconclusive: 15.8 µM [inhibitor, partial curve]"}
{"compound": "CCOC(=O)c1c(NC(=O)c2ccco2)sc2c1CCCC2", "Potency": "inactive"}
{"compound": "CCCCC(NC(=O)c1ccccc1)C(=O)OCC(=O)N1c2ccccc2Sc2ccccc21", "note": "(stereo not given)", "Potency": "inconclusive: 20 µM [inhibitor, partial curve]"}
{"compound": "FC(F)(F)c1ccccc1-c1nccc(N2CCNCC2)n1", "Potency": "inactive"}
{"compound": "O=c1c(-c2ccccc2)nc2cncnc2n1Cc1ccccc1Cl", "Potency": "inactive"}
{"compound": "CCCCCCN(C(=O)CCCCCN1C(=O)NC(c2ccc(-c3ccccc3)cc2)C(C(=O)OCc2ccccc2)=C1C)C(C(=O)NCCCC)c1ccc(OCC(=O)O)c(C(=O)O)c1", "note": "(stereo not given)", "Potency": "inconclusive: 25.1 µM [inhibitor, partial curve]"}
{"compound": "Cc1cc(C)n(-c2nc3ccccc3nc2N2CCC(C)CC2)n1", "Potency": "inactive"}
{"compound": "CC1CCC/C(=N\\NC(=O)COc2ccc(Cl)cc2Cl)C1", "note": "(stereo not given)", "Potency": "inactive"}
{"compound": "O=c1[nH]c(=O)n([C@H]2C[C@H](O)[C@H](CO)O2)cc1/C=C\\Br", "Potency": "inactive"}
{"compound": "CCCCNC(=O)C(C#N)c1nc2ccccc2nc1N1CCCC1", "note": "(stereo not given)", "Potency": "inactive"}
{"compound": "COc1c(-c2coc3cc4c(cc3c2=O)CC(O)C(C)(C)O4)ccc2c1C=CC(C)(C)O2", "note": "(stereo not given)", "Potency": "inconclusive: 3.98 µM [inhibitor, full curve]"}
{"compound": "CCCC(=O)Nc1nc2ccc(OC)cc2s1", "Potency": "inconclusive: 12.6 µM [inhibitor, partial curve]"}
{"compound": "CCN(CC)C(=O)c1sc2[nH]c(=S)n(-c3ccccc3)c(=O)c2c1C", "Potency": "inconclusive: 39.8 µM [inhibitor, single point]"}
{"compound": "COC(=O)C(CC(=O)c1ccc(Br)cc1)n1ccnc1", "note": "(stereo not given)", "Potency": "inconclusive: 1 µM [inhibitor, single point]"}
{"compound": "Fc1ccc(-c2nc3nc4ccccc4nc3n2Cc2ccco2)cc1", "Potency": "inactive"}
{"compound": "COc1ccc(C(NC(=O)/C=C\\c2ccco2)c2ccc(OC)c(OC)c2)cc1", "note": "(stereo not given)", "Potency": "inconclusive: 31.6 µM [inhibitor, single point]"}
{"compound": "O=C(NCc1ccc2c(c1)OCO2)c1ccc2c(c1)OCCO2", "Potency": "inactive"}
{"compound": "O=C1C(Cl)=C(Nc2ccc(S(=O)(=O)Nc3ccccn3)cc2)C(=O)c2ccccc21", "Potency": "inconclusive: 3.16 µM [inhibitor, single point]"}
{"compound": "O=C(Nc1cccc([N+](=O)[O-])c1)c1ccc2nc(N3C(=O)CCC3=O)sc2c1", "Potency": "inconclusive: 10 µM [inhibitor, partial curve]"}
{"compound": "c1ccc2c(CN3CCN(Cc4c[nH]c5ccccc45)CC3)c[nH]c2c1", "activity change, negative = inhibition": "inactive: 4.55% [at 11.4 µM]"}
{"compound": "ON1C2CCCCC2N(O)C1c1c(F)c(F)c(F)c(F)c1F", "note": "(stereo not given)", "Potency": "inconclusive: 10 µM [inhibitor, partial curve]"}
{"compound": "CCN(CC)c1ccc(N2C(=O)/C(=C\\c3cccs3)SC2=S)cc1", "Potency": "inconclusive: 12.6 µM [inhibitor, partial curve]"}
{"compound": "COc1ccc2c(c1)Cc1cc(N=[N+]([O-])c3ccc4c(c3)Cc3cc(OC)ccc3-4)ccc1-2", "Potency": "inconclusive: 3.16 µM [inhibitor, partial curve]"}
{"compound": "CCN(CC)C(=O)C1=C(C)NC(=S)NC1c1cn(-c2ccccc2)nc1-c1ccc(Cl)cc1", "note": "(stereo not given)", "Potency": "inconclusive: 25.1 µM [inhibitor, partial curve]"}
{"compound": "CCn1c(C)cc(=S)c2ccccc21", "Potency": "inconclusive: 12.6 µM [inhibitor, single point]"}
{"compound": "CCC1(C)Cc2c(sc3[nH]c(=S)n(Cc4ccccc4)c(=O)c23)CO1", "note": "(stereo not given)", "Potency": "inconclusive: 15.8 µM [inhibitor, partial curve]"}
{"compound": "COc1ccc(Cl)cc1-c1ccc(C(=O)O)o1", "activity change, negative = inhibition": "inactive: 3.02% [at 0.0915 µM]"}
{"compound": "CCOc1ccc2c(c1)-c1c(ssc1=S)C(C)(C)N2C", "Potency": "inconclusive: 15.8 µM [inhibitor, partial curve]"}
